From the supplement of paper PMC10126150
Sequences with one replicate were seen in a single cluster, so their values are uncertain.

Each sequence was assayed on ATP (assay: switch fluorescence ratio, 500 uM ATP over buffer (Cy3 cluster intensity, sum of 5 cycles each) (fold (ratio)); higher = stronger signal-on switching upon ATP binding; sequences stand for … in TCGTCGGCAGCGTCAGATGTGTATAAGAGACAGTTTTTTTTTTTTTTTTTTTTTTTTT…TC). Conditions: aptamer strand: ATP DNA aptamer (quencher-CACCTGGGGGAGTATTGCGGAGGAAGG + anchor), 100 nM annealed; ATP concentration: 500 uM; one replicate.
Procedure, shortened: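 Values give the fluorescence ratio for each switch-domain sequence, averaged from per-cluster ratios of summed target-cycle to summed buffer-cycle Cy3 intensity. The Cy3-labelled switching-strand clusters sat on a modified Illumina MiSeq flow-cell, were annealed to 100 nM quencher-labelled ATP aptamer, and were imaged in selection buffer, then after 15 min with 500 uM ATP at 22 °C. Five cycles ran with NaOH stripping and re-annealing between them, and clusters outside 100-1000 RFU were excluded.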
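Further: ATP exposure 15 min at 22 °C before imaging.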

Row | Sequence | switch fluorescence ratio
1 | CGGCCAAGTT | 1.04
2 | TGCGTTAGTA | 1
3 | ATAGGTCAGC | 0.994
4 | TCGGACACTC | 1.09
5 | CATGCTAATT | 0.966
6 | TCCCCACACA | 1.12
7 | ACACTCGACC | 1.14
8 | CGAGACGCAC | 1.89
9 | ATCAGGCAAT | 1.85
10 | TATGGTGTAC | 0.976
11 | TGCAGTTAGT | 1.01
12 | CACGAGAAAA | 1.06
13 | AATCTGGA | 0.983
14 | TAGTGACGGG | 1.01
15 | AAAGGTTTT | 1.02
16 | GACGTCTT | 0.961
17 | TAAGAGTCTC | 0.972
18 | GGCATAAGGT | 1.22
19 | AAGCCCATGC | 1.04
20 | TATCTGCTAT | 1.1
21 | TTTGTCAATT | 0.956
22 | AAAGACGTTA | 1
23 | AGCATGAATA | 1.01
24 | AATTCGAGGG | 0.992
25 | CAGCATTTCA | 1.04
26 | ATGATTGAAT | 0.994

Row | Sequence | switch fluorescence ratio
27 | TGAGTAGTTT | 0.971
28 | GATCGGCAGC | 1.1
29 | CTATTCTTTG | 0.988
30 | TGTCCGTTTA | 1.07
31 | TAGGGTGCAT | 1.04
32 | ACTGAGTTA | 1.03
33 | CGCCTCTTGG | 0.947
34 | GCGTAAAGTA | 1
35 | GATGTTTGTT | 0.976
36 | CTCTGTGGGT | 0.966
37 | AGAGATCGTA | 0.979
38 | CGCCAAAATG | 1.67
39 | ACCAGGCCCT | 0.963
40 | ACCTCACCTA | 1.36
41 | TATGTAGGAT | 0.974
42 | TTTATTATTC | 1.01
43 | GGGGGTTT | 0.962
44 | GGAGTGTCGG | 1.01
45 | GAGTCTCCGG | 1.02
46 | ACGTCGTACT | 1.09
47 | CATTCCATCT | 1.03
48 | CTTGATTACT | 1.02
49 | TTCACTCATA | 0.99
50 | AAGCAATAGG | 2.93
51 | TGATAGAGG | 1.03
52 | CTCTGCAGAG | 1.17

Row | Sequence | switch fluorescence ratio
53 | CAGACTCATT | 1.1
54 | CAGTATGATT | 0.968
55 | GGTGTACCTG | 0.996
56 | GACCGGGAAG | 1.04
57 | TTTACACTTT | 0.968
58 | GCCACTTGGC | 0.861
59 | TGGCTATTGA | 0.97
60 | TGCTGAGTCG | 1.02
61 | CAACAGCGAC | 1.56
62 | TCAAAAGGGT | 0.997
63 | AGGAAAGGAA | 0.998
64 | CGGATATAGC | 0.989
65 | AGCGGCCACA | 1.02
66 | CTACTTAGGA | 1.02
67 | TTGGGTGT | 1.01
68 | TCTGGACTGG | 1.01
69 | AATAGGGAGT | 0.977
70 | CCCTTGAGTT | 0.989
71 | AGCGGCGAAC | 1.11
72 | TCGGTCGCGT | 0.989
73 | TGCTTGGACA | 0.969
74 | ACTGTGAGGC | 1.01
75 | CAGACTTAAA | 1.04
76 | TTCTTAGTAT | 1.02
77 | GGATCGATAT | 1
78 | ATTTTCGCT | 0.999

Row | Sequence | switch fluorescence ratio
79 | AGAAAATACG | 1
80 | TCGTCATTTT | 1.15
81 | GTTTAGGTTC | 1.07
82 | TATTCTGTGT | 0.988
83 | GAATTACATC | 1.03
84 | AAAATATCTG | 1.02
85 | TAATAAATTG | 1.01
86 | AAAAGGATTC | 1.05
87 | TCCCTAAGGG | 1.02
88 | CCTGCATGAT | 1.33
89 | GTGAGTTATC | 1.04
90 | AACAATAAGA | 1.02
91 | AAGACTGATG | 0.978
92 | GGTGTTTGGT | 0.99
93 | GCAGTGTCAG | 1.01
94 | TGCAATTCGG | 1.29
95 | GATTTGTCCA | 0.883
96 | GCCGCGTCAA | 1.04
97 | GAGGCTTCGA | 0.908
98 | CGAGACCGTC | 0.893
99 | AACAGTCGCA | 1.01
100 | CATAACAGCG | 0.988
101 | TTTGTAAAG | 1.01
102 | AGCAGTTTC | 1.09
103 | AACAACCTAT | 1.01
104 | TCATCCCGAT | 1.54

Row | Sequence | switch fluorescence ratio
105 | TCTGGGCGCA | 1
106 | ATCTGGTCTC | 0.998
107 | GTTAGTAGGG | 0.938
108 | TTAGCAATGT | 2.35
109 | AAGAGGGCG | 1.08
110 | TGGTCTTTAT | 1.03
111 | TGCGTTTGTG | 0.974
112 | GGGAGGTGAC | 1.01
113 | CAAGTGCACG | 1.06
114 | TTGTTCCTGA | 1
115 | ACAAGGTCTA | 1
116 | TAGTCCTATC | 1.02
117 | ATTTGGCGGC | 1.02
118 | TGACCGGACT | 1.17
119 | CCGGAAAATT | 1.04
120 | GGCGCTCGCC | 0.954
121 | GCTTAGTTTG | 0.984
122 | ACCGTTGCTC | 1.1
123 | GATGGAAAGA | 0.957
124 | TTTCGATTAG | 1.06
125 | GTTGATATTA | 1.04
126 | AAAGGATCG | 1.01
127 | CATATACGGA | 1.07
128 | ATCATCTGTA | 1.02
129 | AGAGTTTTAT | 0.988
130 | TCAGGGTTCA | 0.977

Row | Sequence | switch fluorescence ratio
131 | AGTAGCTCCA | 1.03
132 | GCAACTATCG | 1.03
133 | ATTTACTTTG | 1.03
134 | CATAGACGGC | 0.986
135 | TCAATTTAAA | 1.01
136 | ATCCCATCAT | 0.984
137 | ACGTGTGCT | 0.935
138 | GGGGTTAGAT | 1
139 | CCTAAGGTTA | 1.06
140 | ATAAGTTGCA | 1.02
141 | CACTCAGCGG | 1.18
142 | AATAGTCTTC | 1.03
143 | TGGTATGGCA | 1.02
144 | TCCATTTGTG | 1.01
145 | TGACTATAGG | 1.07
146 | GACGAACCCT | 1.3
147 | GACATATATC | 1.07
148 | CGCCTCTGTT | 1
149 | ATGGAGGAA | 1.08
150 | ACTGTTGCAT | 1.01
151 | AGCTTCCGTA | 1.39
152 | TCCCTATTCA | 1.02
153 | GGCCTGCCGA | 1.04
154 | ACACCTTTTA | 1.05
155 | GCCCGGGAGG | 0.972
156 | ACCGGAGGAG | 1

Row | Sequence | switch fluorescence ratio
157 | AGGAATCATC | 1.01
158 | GGGTATTGAA | 0.956
159 | TAATGTCCCG | 0.976
160 | TGGTGTTTGA | 0.955
161 | TTGGACAGCG | 1.01
162 | CTGCCACGTA | 1.13
163 | TCTAAGATCA | 1.05
164 | AAGGGGGACC | 1.09
165 | CGAAGGAAGT | 0.988
166 | TTCCGTCATA | 1.18
167 | CTCGTAGTTC | 1.08
168 | TGACTTTTGG | 0.952
169 | AATTGAAGT | 0.981
170 | CGTAACAGGG | 0.979
171 | TACTGGGTTA | 0.992
172 | GTTGGTCAGC | 0.982
173 | CTTTAGACTT | 0.997
174 | CACATTGGAC | 1.07
175 | TTGGTGTTAC | 1.44
176 | CCAGCTCACG | 1.04
177 | TCGGCGTCC | 0.948
178 | TTTATGCGGT | 0.981
179 | CGCACGTAA | 1.33
180 | TGGGCTCTTA | 0.979
181 | ATTATCAGAC | 1.01
182 | AAGGCACGTC | 0.998

Row | Sequence | switch fluorescence ratio
183 | TATATGTTGT | 0.99
184 | TAATGCTGCT | 1.04
185 | TATGGCTAGA | 0.98
186 | GTTTTAGCGT | 1
187 | TCGTGGATGC | 1.03
188 | GCTAGGAAAC | 1
189 | GATACAGCTG | 0.955
190 | AAAAAATATC | 0.977
191 | TTTATCCCTG | 1
192 | GCTTCTATGA | 1.01
193 | TGAGATTTTA | 0.967
194 | GATCTTAGCC | 0.958
195 | GTTAATCAGG | 0.972
196 | GTTAAGCCTG | 1
197 | AGATCTTATA | 0.977
198 | AGAACGAGGA | 1.04
199 | ATATAGCCTT | 1.03
200 | GTCAGGTTTC | 1.03
201 | CGCCCCTAGT | 1.08
